One may read the EC50 as the midpoint of the concentration-response curve. A lower EC50 goes with greater potency.

We go through 14 molecules from patent US20250101074A1 (Affibody, published 2025).

Experiment [1] deals with T1, human IL-17A (human, UniProt Q16552 20-155, limits assumed).
T1 sequence: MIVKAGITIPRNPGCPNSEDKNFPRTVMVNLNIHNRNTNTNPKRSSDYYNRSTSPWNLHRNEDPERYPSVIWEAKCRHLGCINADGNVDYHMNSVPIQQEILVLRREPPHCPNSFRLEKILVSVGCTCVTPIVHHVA
The experiment in a line: cell-based or functional assay.

For experiment [2], the target named is T1, human IL-17A. The experiment in a line: ELISA, captured periplasmic Z-ABD, titrated b-hIL-17A. On the procedure: Data were analyzed using GraphPad Prism 5 and non-linear regression, and EC50 values (the half maximal effective concentration) were calculated.
Background: An ELISA detects its analyte on a solid surface through an enzyme-linked reagent.

B1: His6-Z10462 (designed binder)
chain: MGSSHHHHHHLQVDAKYAKEADEAAVEIADLPNLTWDQWYAFIQKLRDDPSQSSELLSEAKKLNDSQAPKVD
As for B1, the “IC50, IL-17A induced IL-6 production, NHDF cells” value (shortened to “IC50 … NHDF cells”) in experiment [1] is 6.6 nM.

B2: His6-Z12180 (designed binder)
chain: MGSSHHHHHHLQVDAKYAKEADDAAVEIAALPNLTWDQWWAFIGKLRDDPSQSSELLSEAKKLNDSQAPKVD
On to B2, for which the “IC50 … NHDF cells” value in experiment [1] is 4.3 nM.

B3: His6-Z10534 (designed binder)
chain: MGSSHHHHHHLQVDAKYAKEADDAAVEIADLPNLTWAQWYAFIGKLRDDPSQSSELLSEAKKLNDSQAPKVD
As for B3, the “IC50 … NHDF cells” value in experiment [1] is 6.5 nM.

B4: His6-Z12115 (designed binder)
chain: MGSSHHHHHHLQVDAKYAKEADDAAYEIAYLPNLTWDQWYAFIQKLRDDPSQSSELLSEAKKLNDSQAPKVD
With B4, the “IC50 … NHDF cells” value in experiment [1] stood at 3 nM.

B5: His6-Z12059 (designed binder)
chain: MGSSHHHHHHLQVDAKYAKEADDAAYEIAFLPNLTWDQWFAFISKLRDDPSQSSELLSEAKKLNDSQAPKVD
B5: the “IC50 … NHDF cells” value in experiment [1] was found to be 3.7 nM.

B6: His6-Z10722 (designed binder)
chain: MGSSHHHHHHLQVDAKYAKEADDAALEIAELPNLTWVQWYAFIQKLRDDPSQSSELLSEAKKLNDSQAPKVD
As to B6, in experiment [1], the “IC50 … NHDF cells” value is 35 nM.

B7: Z10800, periplasmic ABD fusion (designed binder)
chain: AQHDEALEVDAKYAKEADNAAVEIADLPNLTWDQWYAFIAKLRDDPSQSSELLSEAKKLNDSQAPKVDYVLAEAKVLANRELDKYGVSDYYKNLINNAKTVEGVKALIDEILAALPYVPG
notes: domain: GA3
In the case of B7, a half-maximal response in experiment [2] (EC50) required 0.64 nM.

B8: Z10858, periplasmic ABD fusion (designed binder)
chain: AQHDEALEVDAKYAKEADDAAVEIAELPNLTWAQWFAFIGKLRDDPSQSSELLSEAKKLNDSQAPKVDYVLAEAKVLANRELDKYGVSDYYKNLINNAKTVEGVKALIDEILAALPYVPG
notes: domain: GA3
Regarding B8, in experiment [2], it took 0.52 nM to reach a half-maximal effect (EC50). The EC50 values of the last two molecules are within 1.5-fold of each other.

B9: Z10863, periplasmic ABD fusion (designed binder)
chain: AQHDEALEVDAKYAKEADQAAVEIADLPNLTWAQWYAFIQKLRDDPSQSSELLSEAKKLNDSQAPKVDYVLAEAKVLANRELDKYGVSDYYKNLINNAKTVEGVKALIDEILAALPYVPG
notes: domain: GA3
On to B9, for which the EC50 in experiment [2] is 0.45 nM. This EC50 and that of the molecule before are within 1.5-fold of each other.

B10: Z10844, periplasmic ABD fusion (designed binder)
chain: AQHDEALEVDAKYAKEADNAAMEIADLPNLTWDQWFAFIQKLRDDPSQSSELLSEAKKLNDSQAPKVDYVLAEAKVLANRELDKYGVSDYYKNLINNAKTVEGVKALIDEILAALPYVPG
notes: domain: GA3
Consider B10, for which, in experiment [2], a half-maximal effect (EC50) was put at 0.75 nM.

B11: Z10859, periplasmic ABD fusion (designed binder)
chain: AQHDEALEVDAKYAKEADFAAVEIAELPNLTWDQWYAFIQKLRDDPSQSSELLSEAKKLNDSQAPKVDYVLAEAKVLANRELDKYGVSDYYKNLINNAKTVEGVKALIDEILAALPYVPG
notes: domain: GA3
B11 showed an EC50 in experiment [2] of 0.69 nM.

B12: Z10807, periplasmic ABD fusion (designed binder)
chain: AQHDEALEVDAKYAKEADEAAVEIAELPNLTWDQWYAFIGKLRDDPSQSSELLSEAKKLNDSQAPKVDYVLAEAKVLANRELDKYGVSDYYKNLINNAKTVEGVKALIDEILAALPYVPG
notes: domain: GA3
B12 registered an EC50 in experiment [2] of 0.6 nM.

B13: Z10857, periplasmic ABD fusion (designed binder)
chain: AQHDEALEVDAKYAKEADDAAVEIAALPNLTWDQWYAFIQKLRDDPSQSSELLSEAKKLNDSQAPKVDYVLAEAKVLANRELDKYGVSDYYKNLINNAKTVEGVKALIDEILAALPYVPG
notes: domain: GA3
Molecule B13 gave an EC50 in experiment [2] of 0.45 nM.

B14: Z10914, periplasmic ABD fusion (designed binder)
chain: AQHDEALEVDAKYAKEADEAAVEIADLPNLTWDQWFAFIQKLRDDPSQSSELLSEAKKLNDSQAPKVDYVLAEAKVLANRELDKYGVSDYYKNLINNAKTVEGVKALIDEILAALPYVPG
notes: domain: GA3
Regarding B14, a half-maximal response in experiment [2] (EC50) required 0.51 nM. The EC50 values of the last two molecules are within 1.5-fold of each other.
